# Test results: PubChem BioAssay AID485281 (National Center for Advancing Translational Sciences (NCATS), 2010)
# Where “and” joins values, the source holds several entries; their conditions need not be identical. Equal entries are not always repeated. About 260 (0.074%) of roughly 350,000 compounds were called active. Inconclusive means that the source gave no clear call. Such entries were picked first, then a sample of the others. Calls follow the shape of the dose curve; as a rule, active = well fitted inhibition curve with a large enough effect; inconclusive = small, poorly fitted or top-dose-only effect; inactive = no such curve, though single readings can be large or run the other way. Potencies of inconclusive entries are doubtful fits and often do not repeat.
# Target: Ferritin light chain (Equus caballus) (UniProt P02791)
# Test: qHTS Assay for Identification of Novel General Anesthetics; also: nearly all actives have a fitted effect of over 20% in size
# Details: apoferritin/1-aminoanthracene competitive binding, fluorescence; series mostly up to 77.5 µM
# Method in brief: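 Read-out: endpoint 1-AMA fluorescence, excitation 380 nm and emission 535 nm, after compounds sit 10 min at room temperature with 10 uM horse-spleen apoferritin in 50% saturated 1-AMA/PBS. Values come from four-parameter Hill fits.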
# Potency is read from the fitted curve at half-maximal effect; tags tell the direction and shape of the fitted curve.
# Chain of UniProt P02791 (P02791 whole entry, looked up): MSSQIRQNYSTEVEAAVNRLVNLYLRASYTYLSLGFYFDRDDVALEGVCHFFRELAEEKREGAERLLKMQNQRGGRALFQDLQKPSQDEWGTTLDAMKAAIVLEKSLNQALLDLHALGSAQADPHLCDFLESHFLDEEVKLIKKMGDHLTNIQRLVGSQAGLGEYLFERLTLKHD
row,SMILES,Potency
1,CCC1CN(C(=O)Nc2ccccc2F)c2cc(C)ccc2O1 (stereo unspecified),"inconclusive: 28.2 µM [inhibitor, partial curve]"
2,COCCCN1C(=O)C(=O)/C(=C(/O)c2ccc(OC)cc2)C1c1cccc(OC)c1 (stereo unspecified),inactive
3,Cc1c([N+](=O)[O-])c(C(=O)Sc2ccc(Br)cc2)nn1C,"inconclusive: 35.5 µM [inhibitor, partial curve]"
4,CCCn1c(SCC(=O)N2CCN(c3ccc(OC)cc3)CC2)nc2c1c(=O)n(C)c(=O)n2C,"inconclusive: 35.5 µM [inhibitor, partial curve]"
5,CCN(CC)S(=O)(=O)c1ccc(C(=O)Nc2cc(C)cc(C)c2)cc1,"inconclusive: 17.8 µM [inhibitor, partial curve]"
6,CC1CCN(C(=O)c2cc(-c3ccccc3O)on2)CC1,"inconclusive: 35.5 µM [inhibitor, partial curve]"
7,Cc1cc(-c2cc(N)n(-c3ccccc3)n2)c(C)n1C1CCCC1,"inconclusive: 12.6 µM [inhibitor, partial curve]"
8,COC(=O)c1cc2c(=O)c3ccccc3oc2nc1C,inactive
9,C=CCNC(=O)/C(=C\C=C\c1ccccc1)NC(=O)c1ccc(OCCCC)cc1,"inconclusive: 5.01 µM [inhibitor, full curve]"
10,O=C(Nc1cccc(S(=O)(=O)N2CCCCC2)c1)c1ccc2c(=O)n3c(nc2c1)CCCCC3,inactive
11,CC(=O)c1ccc(OCC(O)CN2CCc3ccccc3C2)cc1 (stereo unspecified),inactive
12,O=c1c2ccsc2ncn1Cc1cccc(C(F)(F)F)c1,"inconclusive: 25.1 µM [inhibitor, partial curve]"
13,Cc1ccc(-c2nn3c(-c4ccccc4C)nnc3c3ccccc23)cc1,"inconclusive: 3.98 µM [inhibitor, full curve]"
14,C[C@H](N)c1nnc(SCc2c(Cl)cccc2Cl)o1,"inconclusive: 50.1 µM [inhibitor, single point]"
15,Cc1cccc(NC(=O)CN2C(=O)NC(C)(c3ccc4c(c3)OCO4)C2=O)c1 (stereo unspecified),"inconclusive: 14.1 µM [inhibitor, partial curve]"
16,CCOc1cc(/C=C2\CCC/C(=C\c3cc(Cl)c(O)c(OCC)c3)C2=O)cc(Cl)c1O,"inconclusive: 14.1 µM [inhibitor, partial curve]"
17,CCOC(=O)c1ccc(NCCOC)c([N+](=O)[O-])c1,inactive
18,CCOC(=O)c1ccc(CC(=O)c2oc3cc(O)ccc3c2C)o1,inactive
19,O=C(Nc1ccccc1)OCC1CCCN2CCCCC12 (stereo unspecified),inactive
20,O=C(CCc1ccccc1)Nc1ncc([N+](=O)[O-])s1,"inconclusive: 31.6 µM [inhibitor, partial curve]"
21,CC(NC1CCCC1)C(=O)Nc1ccccc1-c1ccccc1 (stereo unspecified),"inconclusive: 31.6 µM [inhibitor, partial curve]"
22,Cc1cccc(NS(=O)(=O)c2c(C)noc2C)c1,"inconclusive: 25.1 µM [inhibitor, partial curve]"
23,COc1ccc(C2NC(=S)NC3=C2CCCC3=C2SCCS2)cc1 (stereo unspecified),inactive

row,SMILES,Potency
1,CCN(CC)CCCNc1oc(/C=C/c2ccc(OC)c(OC)c2)nc1C#N,inactive
2,COc1ccc(C(=O)c2c[nH]c(C(=O)NCc3ccco3)c2)cc1,inactive
3,Cc1cccc(Oc2nc(-c3ccccc3)cc(C)c2S(C)(=O)=O)c1C,"inconclusive: 3.55 µM [inhibitor, full curve]"
4,Cc1ccc(NC(=O)C(Cc2c[nH]c3ccccc23)NC(=O)OC(C)(C)C)c(C)c1 (stereo unspecified),"inconclusive: 11.2 µM [inhibitor, full curve]"
5,CCCCNC(=O)N(O)C1N(/N=C/c2ccccc2OC)C(=S)SC1(C)C (stereo unspecified),inactive
6,S=c1nc(C23CC4CC(CC(C4)C2)C3)nc2sccn12,"inconclusive: 28.2 µM [inhibitor, single point]"
7,O=C(Nc1ccc2c(c1)OCO2)N1CCN(c2ccccc2Cl)CC1,"inconclusive: 39.8 µM [inhibitor, partial curve]"
8,CCOC(=O)C1CCCN1C(=O)c1ccc(OC)c(Br)c1 (stereo unspecified),"inconclusive: 11.2 µM [inhibitor, partial curve]"
9,CCn1cc(Br)c(-c2nc3ccccc3c(=O)n2N)n1,"inconclusive: 12.6 µM [inhibitor, partial curve]"
10,COc1ccccc1-c1nn2c(-c3ccco3)nnc2s1,"inconclusive: 31.6 µM [inhibitor, single point]"
11,Cc1ccc(NC(=O)C(=O)NCC(c2cccnc2)N2CCN(Cc3ccccc3)CC2)cc1C (stereo unspecified),inactive
12,O=C(CN1C(=O)COc2ccccc21)c1cccc(Cl)c1,"inconclusive: 39.8 µM [inhibitor, partial curve]"
13,CC1=C(C(=O)OC(C)C)[C@@H](c2cccc3nonc23)C([N+](=O)[O-])=C(C)N1,"inconclusive: 35.5 µM [inhibitor, single point]"
14,Brc1cccc(OCCN2CCCCC2)c1,inactive
15,CC(C)=CCC/C(C)=C/CC/C(C)=N/O,"inconclusive: 28.2 µM [inhibitor, partial curve]"
16,Oc1ccc(/C=C/c2cnccn2)cc1,inactive
17,CCOC(=O)COc1nc2c(c(-c3ccco3)c1C#N)CCc1ccccc1-2,"inconclusive: 10 µM [inhibitor, partial curve]"
18,CCN(CC)S(=O)(=O)c1ccc(N2CCCCC2)c(NC(=O)/C(C#N)=C/c2ccc(OC)cc2)c1,inactive
19,COCCCNc1nc(NCc2ccccc2OC)c2cnn(C)c2n1,inactive
20,Cc1ccc(NC(=O)C2(c3cccs3)CCOCC2)cc1Cl,"inconclusive: 20 µM [inhibitor, partial curve, poor fit]"
21,Cc1ccc(C(=O)Nc2ccc(NC(=O)c3cccs3)cc2)cc1[N+](=O)[O-],inactive
22,COc1cccc(NC(=O)Cn2nnc(C(=O)NCc3cccs3)c2N)c1,"inconclusive: 50.1 µM [inhibitor, partial curve] and inconclusive: 14.1 µM [inhibitor, partial curve]"
23,CC(C)CC(OC(=O)c1cccs1)C(=O)NCc1ccco1 (stereo unspecified),"inconclusive: 31.6 µM [inhibitor, single point]"
